# The other results are listed elsewhere or left out.
# System: PfHDP1 homeodomain (GST-tagged)
# Experiment: gcPBM binding intensity (ln(normalized median fluorescence intensity)); higher = stronger DNA binding
# Outline: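 Binding intensity is the highest Masliner-normalised natural-log median intensity over replicate spots in either probe orientation. To obtain it, GST-tagged P. falciparum DNA-binding domains made in E. coli were incubated for 1 h on an Agilent 4 × 180k array of primer-extended double-stranded 36-bp intergenic genomic probes plus negative controls. Detection used Alexa488 anti-GST antibody with scanning at 488 nm.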
row,Sequence,gcPBM binding intensity (ln)
1,TACACCCTATTTTTATGTACTTATTTGATTTACACA [XGTACX_site8172],6.91
2,CAAGAAAATGGACACACACACATATATATATATATA [CACACA_site6010],9.4
3,CAAATTTAAAAAAAATCACACACAGAAAAAAAAAAA [CACACA_site8728],6.44
4,TTTGTTTTAAATATTATACACACGTAAAAGTAGAAT [CACACA_site214],6.73
5,GGAAACCTTTTTTTTACACACAATATATTAATACTT [CACACA_site1403],6.7
6,GTGTAATTATCAGCATAAATATGGTACATACATAAA [CACACA_negctrl_site323],6.47
7,TGTATACGCATATGTACACACATATATATGTATATG [CACACA_site3087],6.91
8,AAAAGATTTATACATACACACATATTATAGTCACAT [CACACA_site7701],6.71
9,TATAACGCTTGCAGCTGTACAAAAATAATCAAACTG [XGTACX_site2464],6.67
10,AATGCTATCATTAATGCACACATTTAAACTTAATAT [CACACA_site5878],10.6
11,TTTTTTTTTTTGTTCACACATATACTTTTATTTTGG [CACACA_site4250],6.5
12,AAAATTATAATATATACACACATATATATATTAAAT [CACACA_site473],6.44
13,TTCTTGGAATACAAGTGTACTTTATTATTATTATTA [XGTACX_site5997],6.32
14,ATAGAAAGTGACAATTGTACATACATATTATATATA [XGTACX_site4390],6.74
15,TTTTTTTTTGCCTACTGTACTATTTTTGAGCTCACC [XGTACX_site7967],7.06
16,AAAAAAAAAAAAAAAAAAAAATTTCAATTATATTGA [GTGCAC_negctrl_site642],6.82
17,AGATAAAAAAAGTACACACACACATATATATATATA [CACACA_site3072],9.22
18,AAGCTTCCTTAATATACACACATATCTGAGTATATT [CACACA_site5939],6.74
19,CAAAATATAGATGACACACACAAAAAAAGTATATTA [CACACA_site6848],6.59

row,Sequence,gcPBM binding intensity (ln)
1,CATTTACCCTTATTAACACACAAAATATAATACGCT [CACACA_site2565],6.71
2,TATATAATATATATTTTATATTTGTAATAATTTTTT [GTGCAC_negctrl_site497],6.3
3,TACATATGAAAATACACACATACATACATATATATA [CACACA_site1673],6.76
4,TAACTCCACAAATAATGTACATATATCACTATATTT [XGTACX_site4911],6.56
5,AATGTATAATTATAATGTACAAATAATATATAATAT [XGTACX_site5407],6.64
6,ATTTACATTCACTTATGTACTTATATAATTTTATTT [XGTACX_site8150],6.5
7,ACGTAAAATTATTATTGTACATGTAAATAATTTGGA [XGTACX_site8154],6.45
8,TATATTAAACATATATGTACATATTTTTTCTGAACA [XGTACX_site5390],6.47
9,AATATTTTCTGTAATACTTCTTTTCAATTTATTTCG [CACACA_negctrl_site1390],6.46
10,ACCAAATCATATATAGCACACAAATTCTTTATTATT [CACACA_site8911],7.16
11,AATATCAATGATGTTACATGCAAGAGAATCCACAAA [TGCATGCA_site678],6.64
12,TATTGTTTTTTTGATTTTTTTTTTTTTTTTAATGAA [CACACA_negctrl_site824],6.15
13,AATAAATTTAAACACACACACACATATATATATATA [CACACA_site4621],9.29
14,TATATACATAAACACACACACACATATATATATATA [CACACA_site8707],9.3
15,ATATTAAACAAACACACACACATATATATATATATA [CACACA_site3383],9.29
16,AATTAATGGTTAAAGGTGCACAATACATATATTACA [GTGCAC_site9943],9.7
17,TGCATATACTCAAGCACACATATATATATATATATA [CACACA_site4733],9.45
18,TTTTTTTTTTTTTTTTTTTTTTTTTTTTTTTGGGGG [CACACA_negctrl_site1570],6.49
19,ATATATTGAAAATATAGTACATAATAAATGTTCTTT [XGTACX_site8474],5.99

row,Sequence,gcPBM binding intensity (ln)
1,ATAAAATAAGACAAAAAAAAAATATATATATATATA [TGCATGCA_negctrl_site314],9.18
2,CCTTGTCTTTTTTTTTTTTTTTTTTCTTCTTATTTT [GTGCAC_negctrl_site523],6.24
3,AAAAAAAAAAAAAAATGTACATATATATATATATTA [XGTACX_site7330],6.35
4,AGTAGATATAATATATGTACATATATATATATATAT [XGTACX_site7186],9.32
5,AAAGTAAAAGGGTTTGGTACACATATAATATATTAG [XGTACX_site6036],6.71
6,ATAACTTTTATTTGTACACACATACATCTATATTAT [CACACA_site6595],7.34
7,AGTAAAAGAAAGCACACACACATGTATTTATGTATG [CACACA_site5998],6.5
8,CATTTATATAAAGAATGTACACACAGAAATGCACAC [XGTACX_site4718],9.03
9,AATATAAATATAAATATAAATAAATAAATAAATAAA [CACACA_negctrl_site291],6.43
10,GTAATTTTTTTCTATACACACATATATATAATATAT [CACACA_site2655],7.08
11,AATGTAGTTTATCGATGTACACAAAATAAAGAGAAG [XGTACX_site6956],7.67
12,CCGTACAATTTTGTCACACATAAAATACTTATGTAT [CACACA_site4871],6.38
13,TAGTATTTATATGATTAACACACATATGGGTATTAA [CACACA_site8363],6.3
14,ATATACACCTGAGAGGTGCATATATATAAAATTTAC,9.05
15,ATAATGTTCACATAGGTGCACTAATATAATTATCCA [GTGCAC_site9981],9.74
16,CATAATAGTTATAAAATACACACCAGGCATGATAAA [CACACA_site329],6.19
17,AAAAAAAAAAAAAAAAGTACTCAATAATAATTACAT [XGTACX_site670],6.63
18,TTTTTTTTTTCTACAAGTACATATTTTCATTTAACA [XGTACX_site6621],6.37
